According to a compilation of properties of binary mixtures (doi:10.1021/ie402890r):
Some of these densities may be calculated back from excess volumes.

Test: xn = mol fraction of the nth substance listed
Conditions: 101 kPa

CCC(=O)[O-].CCC[n+]1ccn(C)c1 + O showed a mass density (288.15 K, x2 = 0) of 1058.8 kg/m3, a mass density (288.15 K, x2 = 0.0815) of 1061.2 kg/m3 and a mass density (288.15 K, x2 = 0.1091) of 1062 kg/m3. It also gave a mass density (288.15 K, x2 = 0.1351) of 1062.9 kg/m3, a mass density (288.15 K, x2 = 0.1599) of 1063.8 kg/m3 and a mass density (288.15 K, x2 = 0.1834) of 1064.6 kg/m3. It also gave a mass density (293.15 K, x2 = 0) of 1055.6 kg/m3, a mass density (293.15 K, x2 = 0.0815) of 1057.9 kg/m3 and a mass density (293.15 K, x2 = 0.1091) of 1058.8 kg/m3. The mass density (293.15 K, x2 = 0.1351) was 1059.8 kg/m3, the mass density (293.15 K, x2 = 0.1599) was 1060.6 kg/m3 and the mass density (293.15 K, x2 = 0.1834) was 1061.5 kg/m3. It also gave a mass density (298.15 K, x2 = 0) of 1052.6 kg/m3, a mass density (298.15 K, x2 = 0.1091) of 1055.8 kg/m3 and a mass density (298.15 K, x2 = 0.1351) of 1056.7 kg/m3. For the same compound, the mass density (298.15 K, x2 = 0.1599) was 1057.6 kg/m3, the mass density (298.15 K, x2 = 0.1834) was 1058.4 kg/m3 and the mass density (303.15 K, x2 = 0) was 1049.6 kg/m3. The mass density (303.15 K, x2 = 0.0815) was 1052 kg/m3, the mass density (303.15 K, x2 = 0.1091) was 1052.8 kg/m3 and the mass density (303.15 K, x2 = 0.1351) was 1053.7 kg/m3. For the same compound, the mass density (303.15 K, x2 = 0.1599) was 1054.6 kg/m3, the mass density (303.15 K, x2 = 0.1834) was 1055.4 kg/m3 and the mass density (308.15 K, x2 = 0) was 1046.4 kg/m3. It also gave a mass density (308.15 K, x2 = 0.0815) of 1048.8 kg/m3, a mass density (308.15 K, x2 = 0.1091) of 1049.6 kg/m3 and a mass density (308.15 K, x2 = 0.1599) of 1051.5 kg/m3. It also gave a mass density (308.15 K, x2 = 0.1834) of 1052.3 kg/m3, a mass density (313.15 K, x2 = 0.0815) of 1045.7 kg/m3 and a mass density (313.15 K, x2 = 0.1091) of 1046.6 kg/m3. For the same compound, the mass density (313.15 K, x2 = 0.1351) was 1047.5 kg/m3, the mass density (313.15 K, x2 = 0.1599) was 1048.4 kg/m3 and the mass density (318.15 K, x2 = 0) was 1040.3 kg/m3. The mass density (318.15 K, x2 = 0.1091) was 1043.5 kg/m3, the mass density (318.15 K, x2 = 0.1351) was 1044.5 kg/m3 and the mass density (318.15 K, x2 = 0.1599) was 1045.3 kg/m3. The mass density (318.15 K, x2 = 0.1834) was 1046.1 kg/m3, the mass density (323.15 K, x2 = 0) was 1037.2 kg/m3 and the mass density (323.15 K, x2 = 0.0815) was 1039.6 kg/m3. The mass density (323.15 K, x2 = 0.1091) was 1040.4 kg/m3, the mass density (323.15 K, x2 = 0.1351) was 1041.4 kg/m3 and the mass density (323.15 K, x2 = 0.1599) was 1042.2 kg/m3. It also gave a mass density (328.15 K, x2 = 0.1351) of 1038.4 kg/m3 and a mass density (328.15 K, x2 = 0.1599) of 1039.3 kg/m3.
